# Test results as given in paper PMC12820563.
# The list shows a part of the results. The list includes weakly bound sequences.
# Molecular target: T1, MBP-FoxP3dN (UniProt Q99JB6)
# T1 sequence: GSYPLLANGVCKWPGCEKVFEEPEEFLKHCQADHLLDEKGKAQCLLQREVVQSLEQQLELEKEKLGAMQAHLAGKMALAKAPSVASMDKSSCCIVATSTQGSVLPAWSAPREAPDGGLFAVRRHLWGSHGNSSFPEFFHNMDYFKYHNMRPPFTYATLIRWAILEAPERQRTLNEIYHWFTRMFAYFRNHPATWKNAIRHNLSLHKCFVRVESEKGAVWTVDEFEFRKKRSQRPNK
# Assay: PD-seq (MBP pull-down with sequencing)
# Settings: 20 mM Tris-HCl pH 7.5, 100 mM NaCl, 1.5 mM MgCl2, 0.4 uM protein, 0.1 uM dsDNA library, 30 min, room temperature, amylose pull-down; high values mean tight binding; double strand, one strand shown
row,Sequence,binding signal (RPM ratio (pull-down/input))
1,GATGATTGTTCTCCCAGCTGATGAATTAAACAGGTCGAGTAAACAAATTTTCCTAATCTTTCTGTTCAAGCGCCATCTAC,0.425
2,GATGATTGTTCTCCCAGCTGATGAATTAGTTTGCTCGAGTAAACAAATTTTCCTAATCTTTCTGTTCAAGCGCCATCTAC,5.59
3,GATGATTGTTCTCCCAGCTGATGAATTGGTTCTGTCGAGTAAACAAATTTTCCTAATCTTTCTGTTCAAGCGCCATCTAC,0.3
4,GATGATTGTTCTCCCAGCTGATGAATTGTTCCAGTCGAGTAAACAAATTTTCCTAATCTTTCTGTTCAAGCGCCATCTAC,0.319
5,GATGATTGTTCTCCCAGCTGATGAATTAACTATTTCGAGTAAACAAATTTTCCTAATCTTTCTGTTCAAGCGCCATCTAC,0.405
6,GATGATTGTTCTCCCAGCTGATGAATTCAGCCTCTCGAGTAAACAAATTTTCCTAATCTTTCTGTTCAAGCGCCATCTAC,5.28
7,GATGATTGTTCTCCCAGCTGATGAATTGGGAATATCGAGTAAACAAATTTTCCTAATCTTTCTGTTCAAGCGCCATCTAC,0.512
8,GATGATTGTTCTCCCAGCTGATGAATTGCTAATGTCGAGTAAACAAATTTTCCTAATCTTTCTGTTCAAGCGCCATCTAC,0.726
9,GATGATTGTTCTCCCAGCTGATGAATTAGCTAAATCGAGTAAACAAATTTTCCTAATCTTTCTGTTCAAGCGCCATCTAC,0.225
10,GATGATTGTTCTCCCAGCTGATGAATTGCGACCCTCGAGTAAACAAATTTTCCTAATCTTTCTGTTCAAGCGCCATCTAC,1.01
11,GATGATTGTTCTCCCAGCTGATGAATTCCTCAAGTCGAGTAAACAAATTTTCCTAATCTTTCTGTTCAAGCGCCATCTAC,0.199
12,GATGATTGTTCTCCCAGCTGATGAATTGCCGCCTTCGAGTAAACAAATTTTCCTAATCTTTCTGTTCAAGCGCCATCTAC,3.89
13,GATGATTGTTCTCCCAGCTGATGAATTCTATATTTCGAGTAAACAAATTTTCCTAATCTTTCTGTTCAAGCGCCATCTAC,0.729
14,GATGATTGTTCTCCCAGCTGATGAATTTCAAATCTCGAGTAAACAAATTTTCCTAATCTTTCTGTTCAAGCGCCATCTAC,0.221
15,GATGATTGTTCTCCCAGCTGATGAATTTCTCCCGTCGAGTAAACAAATTTTCCTAATCTTTCTGTTCAAGCGCCATCTAC,0.222
16,GATGATTGTTCTCCCAGCTGATGAATTCAAAGTTTCGAGTAAACAAATTTTCCTAATCTTTCTGTTCAAGCGCCATCTAC,0.273
17,GATGATTGTTCTCCCAGCTGATGAATTCTAGTGGTCGAGTAAACAAATTTTCCTAATCTTTCTGTTCAAGCGCCATCTAC,0.391
18,GATGATTGTTCTCCCAGCTGATGAATTAAGTTTGTCGAGTAAACAAATTTTCCTAATCTTTCTGTTCAAGCGCCATCTAC,4.83
19,GATGATTGTTCTCCCAGCTGATGAATTACGCGATTCGAGTAAACAAATTTTCCTAATCTTTCTGTTCAAGCGCCATCTAC,1.18
20,GATGATTGTTCTCCCAGCTGATGAATTCAGCGAGTCGAGTAAACAAATTTTCCTAATCTTTCTGTTCAAGCGCCATCTAC,0.527

row,Sequence,binding signal (RPM ratio (pull-down/input))
1,GATGATTGTTCTCCCAGCTGATGAATTTACAGCATCGAGTAAACAAATTTTCCTAATCTTTCTGTTCAAGCGCCATCTAC,1.07
2,GATGATTGTTCTCCCAGCTGATGAATTTTGCGCATCGAGTAAACAAATTTTCCTAATCTTTCTGTTCAAGCGCCATCTAC,1.98
3,GATGATTGTTCTCCCAGCTGATGAATTCCCTGCTTCGAGTAAACAAATTTTCCTAATCTTTCTGTTCAAGCGCCATCTAC,0.268
4,GATGATTGTTCTCCCAGCTGATGAATTAGGTTAGTCGAGTAAACAAATTTTCCTAATCTTTCTGTTCAAGCGCCATCTAC,1.05
5,GATGATTGTTCTCCCAGCTGATGAATTTATTTGCTCGAGTAAACAAATTTTCCTAATCTTTCTGTTCAAGCGCCATCTAC,6.11
6,GATGATTGTTCTCCCAGCTGATGAATTTGATACCTCGAGTAAACAAATTTTCCTAATCTTTCTGTTCAAGCGCCATCTAC,1.2
7,GATGATTGTTCTCCCAGCTGATGAATTTTGTACGTCGAGTAAACAAATTTTCCTAATCTTTCTGTTCAAGCGCCATCTAC,1.18
8,GATGATTGTTCTCCCAGCTGATGAATTATTGCATTCGAGTAAACAAATTTTCCTAATCTTTCTGTTCAAGCGCCATCTAC,7.31
9,GATGATTGTTCTCCCAGCTGATGAATTTAGCGGGTCGAGTAAACAAATTTTCCTAATCTTTCTGTTCAAGCGCCATCTAC,0.56
10,GATGATTGTTCTCCCAGCTGATGAATTCTAGTCTTCGAGTAAACAAATTTTCCTAATCTTTCTGTTCAAGCGCCATCTAC,0.382
11,GATGATTGTTCTCCCAGCTGATGAATTAGTACATTCGAGTAAACAAATTTTCCTAATCTTTCTGTTCAAGCGCCATCTAC,0.842
12,GATGATTGTTCTCCCAGCTGATGAATTTAAACAATCGAGTAAACAAATTTTCCTAATCTTTCTGTTCAAGCGCCATCTAC,0.913
13,GATGATTGTTCTCCCAGCTGATGAATTTGTCTATTCGAGTAAACAAATTTTCCTAATCTTTCTGTTCAAGCGCCATCTAC,5.7
14,GATGATTGTTCTCCCAGCTGATGAATTGAGCTGTTCGAGTAAACAAATTTTCCTAATCTTTCTGTTCAAGCGCCATCTAC,0.939
15,GATGATTGTTCTCCCAGCTGATGAATTCTCGGTTTCGAGTAAACAAATTTTCCTAATCTTTCTGTTCAAGCGCCATCTAC,0.333
16,GATGATTGTTCTCCCAGCTGATGAATTTGCCTTTTCGAGTAAACAAATTTTCCTAATCTTTCTGTTCAAGCGCCATCTAC,2.1
17,GATGATTGTTCTCCCAGCTGATGAATTTGCCGATTCGAGTAAACAAATTTTCCTAATCTTTCTGTTCAAGCGCCATCTAC,0.474
18,GATGATTGTTCTCCCAGCTGATGAATTATTTTAGTCGAGTAAACAAATTTTCCTAATCTTTCTGTTCAAGCGCCATCTAC,0.414
19,GATGATTGTTCTCCCAGCTGATGAATTATTGTATTCGAGTAAACAAATTTTCCTAATCTTTCTGTTCAAGCGCCATCTAC,3.03
20,GATGATTGTTCTCCCAGCTGATGAATTACAACCGTCGAGTAAACAAATTTTCCTAATCTTTCTGTTCAAGCGCCATCTAC,0.497
